About 14,000 (4.5%) of roughly 310,000 compounds showed an effect of 50% or more. The effect is printed as a negative number. This is one part of the list.
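Note: peak tail current of the secondary pulse compared with the same well before compound.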

Chain of human ether-à-go-go-related gene (hERG) potassium channel (Q12809 whole entry, looked up): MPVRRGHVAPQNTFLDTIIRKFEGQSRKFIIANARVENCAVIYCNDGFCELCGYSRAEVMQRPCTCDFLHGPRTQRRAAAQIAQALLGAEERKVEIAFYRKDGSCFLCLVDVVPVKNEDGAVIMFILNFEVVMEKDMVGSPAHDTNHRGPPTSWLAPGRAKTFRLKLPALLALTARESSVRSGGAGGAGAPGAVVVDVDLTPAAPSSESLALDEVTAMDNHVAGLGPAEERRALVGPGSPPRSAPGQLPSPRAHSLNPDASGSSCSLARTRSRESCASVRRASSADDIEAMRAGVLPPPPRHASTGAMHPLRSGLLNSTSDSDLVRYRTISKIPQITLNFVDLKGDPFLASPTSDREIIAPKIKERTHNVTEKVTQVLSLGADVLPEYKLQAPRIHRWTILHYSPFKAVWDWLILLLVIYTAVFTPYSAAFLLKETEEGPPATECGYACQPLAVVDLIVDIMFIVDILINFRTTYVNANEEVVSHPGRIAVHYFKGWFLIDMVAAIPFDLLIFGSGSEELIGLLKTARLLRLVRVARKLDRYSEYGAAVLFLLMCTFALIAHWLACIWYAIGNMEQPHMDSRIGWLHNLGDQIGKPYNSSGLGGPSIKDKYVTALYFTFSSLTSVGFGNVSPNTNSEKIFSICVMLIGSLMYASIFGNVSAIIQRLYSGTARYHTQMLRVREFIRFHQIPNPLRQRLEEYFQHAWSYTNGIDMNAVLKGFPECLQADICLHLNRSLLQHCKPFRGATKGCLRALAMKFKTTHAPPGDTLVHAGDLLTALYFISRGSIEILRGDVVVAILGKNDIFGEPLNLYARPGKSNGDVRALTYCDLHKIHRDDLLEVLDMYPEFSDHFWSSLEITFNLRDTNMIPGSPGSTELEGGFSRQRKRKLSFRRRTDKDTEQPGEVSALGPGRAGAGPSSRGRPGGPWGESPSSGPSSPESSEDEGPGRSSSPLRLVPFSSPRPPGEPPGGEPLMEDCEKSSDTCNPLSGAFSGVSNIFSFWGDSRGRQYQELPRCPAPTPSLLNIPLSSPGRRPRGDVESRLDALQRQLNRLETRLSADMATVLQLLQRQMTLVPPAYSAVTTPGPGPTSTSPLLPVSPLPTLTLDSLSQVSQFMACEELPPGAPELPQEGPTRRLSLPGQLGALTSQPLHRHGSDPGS

This assay concerns the target human ether-à-go-go-related gene (hERG) potassium channel (human, UniProt Q12809). Kind of assay: primary screen, population patch clamp on CHO cells stably expressing hERG.
As for `CCCCCc1nc2ccccc2c(=O)n1-c1ccc(Cl)cc1[N+](=O)[O-]`, the “hERG current change (%, negative = inhibition) at 10uM” value is 2.95%.
In the case of `N#Cc1ccc(C23CC4(C2)[C@H](CN(Cc2ccc(-c5ccccc5)cc2)[C@@H]4c2ccccc2)C3c2ccc(Cl)nc2)cc1` (some centres unmarked), the “hERG current change (%, negative = inhibition) at 10uM” value is recorded as -4.31%.
For the compound `CC(NC(=O)c1ccccc1F)c1nnc(SCC(=O)Nc2nccs2)n1C` (centres unmarked), the “hERG current change (%, negative = inhibition) at 10uM” value worked out at 7.9%.
The figure for `CCC1Oc2ccccc2N(CC(=O)NC2CCCCC2)C1=O` (centres unmarked) is 11.8%; for `Cc1cc(C)n(S(=O)(=O)c2ccc(Cl)cc2)n1` it is 13.4%; for `COc1ccc(N2CCN(S(=O)(=O)c3cc(C)ccc3OC)CC2)cc1` it is -2.29%.
`CCN1CCN(Cc2ccc(NC(=O)c3ccc(C)c(NC(=O)C[C@@H]4NC(=O)[C@H](Cc5ccccc5)NC4=O)c3)cc2C(F)(F)F)CC1`: the “hERG current change (%, negative = inhibition) at 10uM” value is reported as 10.3%.
Take `COc1cc(NC(=S)Nc2ccc(OC(F)F)cc2)cc(OC)c1`: the “hERG current change (%, negative = inhibition) at 10uM” value was -43.7%.
With `Cc1cccc(NC(=O)C2CCN(S(=O)(=O)c3cccc4cccnc34)CC2)n1`, the “hERG current change (%, negative = inhibition) at 10uM” value is on record as -11.8%.
As for `O=C1CCCC2=C1C(c1ccco1)Nc1ccc3ccccc3c12` (centres unmarked), the “hERG current change (%, negative = inhibition) at 10uM” value was -6.02%.
The result for `CCCN1CC(O)=C(C#N)C1=O` reads 3%; that for `Cc1ccc(NC2OC(C(O)CO)C(O)C2O)cc1[N+](=O)[O-]` (centres unmarked), -1.06%.
For `COC(=O)c1ccc(NC(=O)C(=O)c2cn(CC(=O)N3CCOCC3)c3ccccc23)cc1`, the “hERG current change (%, negative = inhibition) at 10uM” value is listed as -8.37%.
`O=C(/C=C\Nc1ccc2c(c1)OCO2)c1ccccn1`: the “hERG current change (%, negative = inhibition) at 10uM” value was found to be 11%.
Consider `Cn1c(=O)n(CC(=O)N2CCC3(CC2)OCCO3)c(=O)c2ccccc21`, for which the “hERG current change (%, negative = inhibition) at 10uM” value is listed as -1.21%.
On to `Cc1ccc(C)c(S(=O)(=O)NC2CCS(=O)(=O)C2)c1` (centres unmarked), for which the “hERG current change (%, negative = inhibition) at 10uM” value is reported as -12.1%.
Turning to `COC(=O)[C@@H]1C[C@@]2(O)[C@H](O)[C@H](O)[C@H](O)C[C@H]2N1Cc1cc(OC)cc(OC)c1`, the “hERG current change (%, negative = inhibition) at 10uM” value was found to be 13.1%.
The figure for `O=C1c2oc3ccccc3c(=O)c2C(c2ccc(O)cc2)N1c1nccs1` (centres unmarked) is 9.09%.
With `CSc1nnc(N2C(=O)C(O)=C(C(=O)c3ccco3)C2c2ccccc2F)s1` (centres unmarked), the “hERG current change (%, negative = inhibition) at 10uM” value stood at 5.74%.
The result for `COc1ccc2cc3c(N)nn(C(=O)C4CCC(C(C)(C)C)CC4)c3nc2c1` (centres unmarked) reads -6.56%; that for `COc1cccc(CNC(=O)CCC2CCCN(C(=O)CCn3cncn3)C2)c1` (centres unmarked), 29.4%; that for `O=S(=O)(Nc1ccc(-n2cccc2)cc1)c1ccc(Cl)cc1Cl`, 10.5%.
Turning to `O=C(OCC(=O)c1ccc([N+](=O)[O-])cc1)/C(=C/c1ccc(Cl)cc1)NC(=O)c1ccccc1`, the “hERG current change (%, negative = inhibition) at 10uM” value is recorded as -63.3%.
Take `COc1cc(-c2n[nH]c(=S)n2Cc2ccccc2)cc(OC)c1OC`: the “hERG current change (%, negative = inhibition) at 10uM” value is 6.36%.
As to `COc1ccc(C2c3ccc(O)cc3Oc3ncn4nc(-c5cccnc5)nc4c32)cc1OC` (centres unmarked), the “hERG current change (%, negative = inhibition) at 10uM” value is given as -56.9%.
For the compound `COC(=O)c1cc(C(=O)Nc2nnc(CC(C)(C)C)s2)cc([N+](=O)[O-])c1`, the “hERG current change (%, negative = inhibition) at 10uM” value is recorded as -2.08%.
With `C=C(C)C1Cc2c(C)nn(-c3nc(C)cc(C)n3)c2C1` (centres unmarked), the “hERG current change (%, negative = inhibition) at 10uM” value is given as 11.5%.
`Cc1ccc(OCC(=O)N2CCc3ccccc32)cc1`: the “hERG current change (%, negative = inhibition) at 10uM” value is reported as 15.9%.
As for `O=C(NCc1ccccn1)Nc1ccc(Cl)cc1`, the “hERG current change (%, negative = inhibition) at 10uM” value was found to be 13.9%.
In the case of `c1ccc(-c2nnc3n2NC(c2ccc4c(c2)OCO4)S3)cc1` (centres unmarked), the “hERG current change (%, negative = inhibition) at 10uM” value was determined as 11.1%.
The result for `Oc1c(Cl)cc(Cl)cc1CN1CCN(Cc2ccccc2)CC1` reads -12%; that for `CN(C)C(CNC(=O)c1cc2ccccc2oc1=O)c1ccccc1` (centres unmarked), -12.7%.
The figure for `O=C1OC(Cc2ccccn2)C(=O)C1=C1SCCS1` (centres unmarked) is 8.1%; for `O=C1C(=O)N(c2nccs2)C(c2ccccc2)/C1=C(\O)c1ccc2c(c1)OCCO2` (centres unmarked) it is 8.03%.
As to `CCC(=O)CC(c1ccc([N+](=O)[O-])cc1)c1c(O)c2ccccc2oc1=O` (centres unmarked), the “hERG current change (%, negative = inhibition) at 10uM” value is on record as 4.98%.
As to `O=C(c1cccc(C(F)(F)F)c1)C1CCCN(C(=O)c2cc(C3CC3)[nH]n2)C1` (centres unmarked), the “hERG current change (%, negative = inhibition) at 10uM” value is listed as -38.9%.
For `CC(=O)Cc1nsc(NC(=O)c2ccc(F)cc2)n1`, the “hERG current change (%, negative = inhibition) at 10uM” value is 23.5%.
As for `CCOc1cc(C)c(Cl)cc1S(=O)(=O)NCC1CCCO1` (centres unmarked), the “hERG current change (%, negative = inhibition) at 10uM” value worked out at 1.35%.
On to `Cc1ccc(SC(=O)COc2ccccc2C)cc1`, for which the “hERG current change (%, negative = inhibition) at 10uM” value is listed as 6.43%.
The figure for `CN(CC(=O)OCC(=O)Nc1ccccc1)S(=O)(=O)c1ccc(Cl)cc1` is -19.9%; for `Cc1ccc(S(=O)(=O)c2c(COC(=O)c3ccccc3Cl)c(-c3ccccc3)nn2C)cc1` it is 2.56%.
Turning to `CCOc1cc(/C=N/n2c(COc3ccccc3)n[nH]c2=S)ccc1O`, the “hERG current change (%, negative = inhibition) at 10uM” value was found to be 24.4%.
As for `CN(C)/C=C1/N=C(c2ccccc2)OC1=O`, the “hERG current change (%, negative = inhibition) at 10uM” value is listed as -4.75%.
The result for `CNC(=O)c1cccn(Cc2cc(C(F)(F)F)cc(C(F)(F)F)c2)c1=O` reads 4.19%.
The result for `O=C(COC(=O)c1nc(Cl)ccc1Cl)NCc1ccccc1` reads 10.7%; that for `N#Cc1ccccc1NC(=O)COc1ccc2c(c1)OCO2`, 5%; that for `COc1ccc(/C=N/NC(=O)CCCOc2ccc(Cl)cc2Cl)cc1[N+](=O)[O-]`, -14.8%.
In the case of `O=C(CCCN1C(=O)/C(=C/c2ccccc2Cl)SC1=S)NNC(=O)c1ccccc1`, the “hERG current change (%, negative = inhibition) at 10uM” value is reported as -7.83%.
In the case of `Cc1cccc(NC(=S)NC(=O)c2ccc(-c3ccccc3)cc2)n1`, the “hERG current change (%, negative = inhibition) at 10uM” value is 40.1%.
With `CS(=O)(=O)N1CCN(C(=O)c2cc(-c3ccncc3)nc3ccc(Cl)cc23)CC1`, the “hERG current change (%, negative = inhibition) at 10uM” value was -12.8%.
Take `CC(=O)c1ccccc1NC(=O)COc1ccc(N(C)S(=O)(=O)c2ccc(C)c(C)c2)cc1`: the “hERG current change (%, negative = inhibition) at 10uM” value is recorded as -20%.
Regarding `COc1ccc(CCNC(=O)Cn2nnc3ccccc3c2=O)cc1`, the “hERG current change (%, negative = inhibition) at 10uM” value is on record as 9.17%.
For the compound `CC(C)C(=O)Nc1ccc(C(=O)Nc2nnc(C(C)C)s2)cc1`, the “hERG current change (%, negative = inhibition) at 10uM” value came to 13.2%.
In the case of `NC(=O)c1cc(S(=O)(=O)NCc2ccc(Br)cc2)cs1`, the “hERG current change (%, negative = inhibition) at 10uM” value is 3.35%.
Take `Cc1ccccc1OCC(=O)NC1CCCCCCC1`: the “hERG current change (%, negative = inhibition) at 10uM” value was -17.6%.
For `COc1ccc(/C=N/NC(=O)Cc2csc(Nc3cccc(C(F)(F)F)c3)n2)cc1C`, the “hERG current change (%, negative = inhibition) at 10uM” value came to 10.7%.
Consider `O=S(=O)(c1ccccc1)n1ccc(-c2cnc(-c3ccccc3)s2)n1`, for which the “hERG current change (%, negative = inhibition) at 10uM” value turned out to be 8.54%.
`COc1cc(/C=C2/C(=N)N3C(=NC2=O)SN=C3S(=O)(=O)C(C)C)ccc1OC(=O)c1ccco1`: the “hERG current change (%, negative = inhibition) at 10uM” value came to 10.9%.
The result for `COc1ccc(-c2noc(CCC(=O)N(C)c3cccc(C)c3)n2)cc1` reads 2.44%; that for `COc1ccc(Cn2c(=O)[nH]c3cc(C(=O)N4CCN(c5ccccn5)CC4)ccc3c2=O)cc1`, 4.92%; that for `COCC(=O)N/N=C(\C)CC(=O)NCc1ccco1`, 21.1%.
Take `O=C(O)c1ccc(-c2nnn(Cc3ccccc3F)n2)cc1`: the “hERG current change (%, negative = inhibition) at 10uM” value was 58.7%.
On to `Nc1c(C(=O)OCC2CCCO2)c2nc3ccccc3nc2n1C1CCCC1` (centres unmarked), for which the “hERG current change (%, negative = inhibition) at 10uM” value is -22%.
Consider `CN(CCOc1ccc(Cl)c(Cl)c1)Cc1ccccc1.O=C(O)C(=O)O`, for which the “hERG current change (%, negative = inhibition) at 10uM” value was 23.1%.
Regarding `O=C(Nc1ccc(C(=O)N2CCCC2)cc1)c1ccc(F)cc1Cl`, the “hERG current change (%, negative = inhibition) at 10uM” value was found to be 0.232%.
`CC(C)CC(=O)Nc1cccc(C(=O)Nc2ccccc2C(=O)O)c1`: the “hERG current change (%, negative = inhibition) at 10uM” value is listed as -0.202%.
The figure for `CC(C(=O)c1ccccc1)N1C(=O)c2ccccc2C1=O` (centres unmarked) is 10%; for `CC(=O)c1cccc(NC(=O)C2=CC(c3ccc4c(c3)OCO4)=NS(=O)(=O)N2C)c1` it is -8.8%.
In the case of `Cc1ccc(NC(=O)CN(C)C(=O)c2ccc(S(=O)(=O)N(C)c3ccccc3)cc2)cc1`, the “hERG current change (%, negative = inhibition) at 10uM” value is 11.2%.
The figure for `Cc1csc(OCc2ccc(C#N)cc2)n1` is -22.9%; for `CCOc1cc(C(=O)NCc2ccco2)cc(OCC)c1OCC` it is -6.81%; for `COc1ccc(-c2cc(C(=O)OCC(=O)c3cccc([N+](=O)[O-])c3)c3cc(C)ccc3n2)cc1` it is -2.3%.
In the case of `COC(=O)c1ccc(CN2CCN(Cc3ccc(F)cc3)C(CCO)C2)cc1` (centres unmarked), the “hERG current change (%, negative = inhibition) at 10uM” value is recorded as 10.1%.
For `O=C(COc1ccc(Br)cc1)Nc1ccc(N2CCOCC2)cc1N1CCOCC1`, the “hERG current change (%, negative = inhibition) at 10uM” value was -7.56%.
Turning to `COc1cc2[nH]c(C(=O)N(C)C3CCS(=O)(=O)C3)cc2c(OC)c1OC` (centres unmarked), the “hERG current change (%, negative = inhibition) at 10uM” value stood at 13.6%.
For `Cc1ccc(C)c2[nH]c(=O)c(CN(CC3CCCO3)C(=O)NC3CCCCC3)cc12` (centres unmarked), the “hERG current change (%, negative = inhibition) at 10uM” value is reported as -2.81%.
In the case of `Cc1ccc(S(=O)(=O)N2CCOCC2)cc1C(=O)NC1CCCC(C)C1C` (centres unmarked), the “hERG current change (%, negative = inhibition) at 10uM” value is -25.7%.
`O=C(COC(=O)C1CCN(c2ccc(C(F)(F)F)cn2)CC1)NCc1ccc(Cl)cc1Cl`: the “hERG current change (%, negative = inhibition) at 10uM” value was -10.1%.
On to `COc1cccc(-n2c(SCC(=O)Nc3cc(C)on3)nc3ccccc3c2=O)c1`, for which the “hERG current change (%, negative = inhibition) at 10uM” value is listed as -4.23%.
For the compound `CCN(C(=O)Cn1cc(C(F)(F)F)ccc1=O)c1c(N)n(Cc2ccccc2)c(=O)[nH]c1=O`, the “hERG current change (%, negative = inhibition) at 10uM” value was found to be 10.4%.
Take `COc1cc(C)c(/C=C(\C#N)C(=O)Nc2cccc(C)c2)cc1C(C)C`: the “hERG current change (%, negative = inhibition) at 10uM” value is 0.0709%.
In the case of `CN(CCCNC(=O)CCC(=O)N1CCOc2ccc(Cl)cc21)Cc1ccccc1`, the “hERG current change (%, negative = inhibition) at 10uM” value is -64.1%.
Consider `CCC(=O)c1ccc(Oc2ccc(C(=O)c3ccc(C)cc3)cc2[N+](=O)[O-])cc1`, for which the “hERG current change (%, negative = inhibition) at 10uM” value stood at 10.1%.

The record behind these values is PMC4336329 (PLoS ONE, 2015).
